Three compounds from PubChem BioAssay AID1845204 (Molecular Pharmacology Branch, DTP, NCI, 2023) can be followed below.

As usually defined, the viability, T/C is the ratio of treated to control.

The test system of the assay is HSSY-II tumor spheroid viability. Kind of assay: Anticancer human tumor HSSY-II cell line growth inhibition.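 Note: spheroids exposed to compounds for seven days before reading; percent of DMSO vehicle control viability so 100% = untreated level.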 Particulars: stronger effect = lower value, spheroids with HUVEC and MSC. From the text:
Multicellular complex tumor spheroid response to DNA repair inhibitors in combination with DNA-damaging drugs
This study explores the anticancer activities of DNA-damaging drugs and inhibitors of DNA damage repair, both as single agents and in combinations. Complex tumor spheroids comprised of malignant cells, endothelial cells and mesenchymal stem cells served as an in vitro model for human solid tumors. This model system incorporates physiologically relevant features and patient-derived or established malignant cell lines with clinically relevant genetic alterations from many tumor types. Twenty-six patient-derived or established malignant cell lines were evaluated representing sarcoma, melanoma, small cell lung cancer (SCLC), non-small cell lung cancer (NSCLC), as well as bladder, ovarian and pancreatic cancers. The concentration ranges selected for each drug and investigational agent were based upon clinically achievable concentrations if the clinical Cmax of the agent was known.
Compounds. The drugs and compounds olaparib (NSC753686), talazoparib (NSC767125), berzosertib (NSC777718), elimusertib (NSC800525), nedisertib (NSC802822), VX-984 (NSC792969), AZD-1390 (NSC803789), temozolomide (NSC362856), topotecan (NSC609699), trabectedin (NSC813783), staurosporine (NSC755774), and gemcitabine (NSC613327) were obtained from the National Cancer Institute (NCI) Developmental Therapeutics Program Chemical Repository. The FDA-approved anticancer drug set is available from the Developmental Therapeutics Program at https://dtp.cancer.gov/organization/dscb/obtaining/available_plates.htm. […] The stock solutions were prepared in dimethyl sulfoxide (DMSO, Sigma-Aldrich, St. Louis, MO, cat. D2650) at 400-fold the tested concentration and stored at -70 degrees C. Prior to their use, the stock solutions were diluted in fresh medium and the final DMSO concentration in the assay was 0.25% (v/v). All drugs and investigational agents were tested over a range starting from a high concentration at or near the clinical Cmax and decreasing in half-log increments. If the clinical Cmax for an agent had not been determined, the highest concentration tested was 10 microM.
Cell Lines. The patient-derived cancer cell (PDC) lines: 156681-154-R-J1-PDC, 283228-195-R-J1-PDC, 287954-098-R-J1-PDC, 292921-168-R-J2-PDC, 349418-098-R-PDC, 425362-245-T-J1-PDC, 556581-035-R-J1-PDC, and BL0293-F563-PDC were received from the NCI Patient-Derived Models Repository (PDMR, https://pdmr.cancer.gov). The established cell lines HS-SY-2 (RRID:CVCL_8719), MPNST, and SYO-1 (RRID:CVCL_7146) were obtained from the Sloan Kettering Institute. The alveolar soft parts sarcoma cell line ASPS-1 (RRID:CVCL_S738) was established at the NCI and grown from internal seed stocks. […]

For part of its entries the source gives two or more results. They are shown here; other results are not. There may be further records. The records of an entry repeat one measurement (runs, samples, wells, individuals or studies).

For the compound `O=C(c1cc(Cc2n[nH]c(=O)c3ccccc23)ccc1F)N1CCN(C(=O)C2CC2)CC1`, the viability, T/C (compound alone 30 µM) is listed as 44.5%, 7.95%, 12.2%.

On to `CC[C@@]1(O)C(=O)OCc2c1cc1n(c2=O)Cc2cc3c(CN(C)C)c(O)ccc3nc2-1`, for which the viability, T/C (compound alone 0.00949 µM) is reported as 44.7, 49.4, 64.4, 40.8, 41.3, 67.7, 54.8, 56.2, 61.5, 58.5%.

Regarding `COc1cc2c(cc1O)CCNC21CSC2c3c(OC(C)=O)c(C)c4c(c3C(COC1=O)N1C(O)C3Cc5cc(C)c(OC)c(O)c5C(C21)N3C)OCO4` (centres undefined), the viability, T/C (compound 30 pM) was 96.5, 98.3, 99.9, 95.7, 98.6, 97.2, 120, 193, 113, 138% and the viability, T/C (compound 94.9 pM) is on record as 88.2, 88, 95.8, 82.2, 90.9, 90.4, 120, 117, 106, 119%.
